# Source: PubChem BioAssay AID1347165 (National Center for Advancing Translational Sciences (NCATS), 2019)
# About 5,700 (2.6%) of roughly 220,000 compounds were called active. The shares of active, inactive and inconclusive entries below differ from those in the screen. Calls follow the shape of the dose curve; as a rule, active = well fitted inhibition curve with a large enough effect; inconclusive = small, poorly fitted or top-dose-only effect; inactive = no such curve, though single readings can be large or run the other way. Potencies beside an inconclusive call are fits to weak or partial responses and may not hold up.
# Biological target: Lysine-specific demethylase 5B (Homo sapiens) (UniProt Q9UGL1)
# UniProt Q9UGL1, sequence (Q9UGL1 whole entry, looked up): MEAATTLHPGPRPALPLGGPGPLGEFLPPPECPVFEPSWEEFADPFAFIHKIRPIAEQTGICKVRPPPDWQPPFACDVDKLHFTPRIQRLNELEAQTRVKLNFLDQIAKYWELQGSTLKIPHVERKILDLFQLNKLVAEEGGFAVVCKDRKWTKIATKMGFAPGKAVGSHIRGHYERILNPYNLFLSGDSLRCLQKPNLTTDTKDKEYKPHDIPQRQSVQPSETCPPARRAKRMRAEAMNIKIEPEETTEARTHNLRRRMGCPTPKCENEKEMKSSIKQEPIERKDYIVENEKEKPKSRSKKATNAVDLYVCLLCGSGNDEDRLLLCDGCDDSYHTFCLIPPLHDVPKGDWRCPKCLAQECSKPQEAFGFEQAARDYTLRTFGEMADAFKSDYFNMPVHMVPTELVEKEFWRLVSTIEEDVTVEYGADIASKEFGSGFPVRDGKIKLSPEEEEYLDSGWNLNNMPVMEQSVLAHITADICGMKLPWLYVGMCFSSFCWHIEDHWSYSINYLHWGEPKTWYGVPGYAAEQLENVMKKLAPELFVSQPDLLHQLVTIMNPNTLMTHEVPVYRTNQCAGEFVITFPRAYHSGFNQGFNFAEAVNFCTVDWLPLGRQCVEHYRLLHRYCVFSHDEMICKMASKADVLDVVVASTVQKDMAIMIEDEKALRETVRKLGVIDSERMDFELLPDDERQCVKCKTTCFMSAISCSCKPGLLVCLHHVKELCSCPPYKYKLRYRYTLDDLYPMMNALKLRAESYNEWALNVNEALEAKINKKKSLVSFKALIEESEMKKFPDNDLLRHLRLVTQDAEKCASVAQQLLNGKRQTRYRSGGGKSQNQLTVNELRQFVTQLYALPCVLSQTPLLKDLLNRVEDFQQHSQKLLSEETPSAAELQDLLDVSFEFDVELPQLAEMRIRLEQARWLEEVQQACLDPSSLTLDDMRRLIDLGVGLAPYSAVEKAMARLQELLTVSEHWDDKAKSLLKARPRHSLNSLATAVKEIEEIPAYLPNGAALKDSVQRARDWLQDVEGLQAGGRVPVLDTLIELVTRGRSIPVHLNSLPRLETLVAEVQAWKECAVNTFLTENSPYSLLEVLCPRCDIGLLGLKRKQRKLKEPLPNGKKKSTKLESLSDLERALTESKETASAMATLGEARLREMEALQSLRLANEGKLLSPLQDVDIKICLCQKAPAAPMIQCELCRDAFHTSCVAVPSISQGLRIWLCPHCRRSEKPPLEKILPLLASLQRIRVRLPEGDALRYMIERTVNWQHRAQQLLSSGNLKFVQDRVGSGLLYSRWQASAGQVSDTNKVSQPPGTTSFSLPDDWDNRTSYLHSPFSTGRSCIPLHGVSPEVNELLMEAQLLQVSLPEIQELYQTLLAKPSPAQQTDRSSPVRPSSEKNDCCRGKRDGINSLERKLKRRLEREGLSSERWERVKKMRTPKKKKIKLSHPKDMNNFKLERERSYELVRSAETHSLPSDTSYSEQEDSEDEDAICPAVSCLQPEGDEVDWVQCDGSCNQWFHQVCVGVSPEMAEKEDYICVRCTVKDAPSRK
# Assay: Primary screen for KDM5B Histone Demethylases FDH-coupled qHTS; also: nearly all actives have a fitted effect of over 70% in size; as to activity change, negative = inhibition: 0% is about no effect
# Conditions: FDH-coupled NADH fluorescence (FDH is formaldehyde dehydrogenase); activity change, negative = inhibition: at 57.7 µM (top of the series) unless noted
# Method in brief: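 qHTS format, multiple compound concentrations. Buffer 50 mM HEPES pH 7.5/0.01% Tween-20; 200 nM KDM5BΔAP final; 10 min compound preincubation; substrate-mix levels 12.5 µM peptide, 25 µM α-KG, 0.25 mM NAD⁺; 30 min RT; ΔRFU.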
# Potency is read from the fitted curve at half-maximal effect; tags tell the direction and shape of the fitted curve.
Compound,"activity change, negative = inhibition",Potency
CCSc1nc2c(c(=O)[nH]1)C(c1ccc(C)o1)C1=C(CCCC1=O)N2 (stereo not given),inactive: -13.4%,–
CCC(C)Cc1nccc(C2(c3ccccc3Cl)CCNCC2)n1 (stereo not given),–,"inconclusive: 11.2 µM [inhibitor, partial curve, poor fit]"
Cn1c(C(=O)NCc2ccccc2F)cc2cc(S(=O)(=O)N3CCCCC3)ccc21,–,"inconclusive: 35.5 µM [inhibitor, single point]"
CN(C)C(=O)c1ccc2c(c1)N(C)C(CC(=O)NC1(CO)CCCCC1)CO2 (stereo not given),inactive: -11.9%,–
COc1ccc2cc(C(=O)N3CCc4nn(C)c(=O)n4CC3)[nH]c2c1,–,active: 25.1 µM
CC1CCC(=NNC(=O)c2ccc(Br)o2)CC1 (stereo not given),inactive: 12.1%,–
COc1ccc(-c2cc(C(=O)N3CCN(CC(=O)N4CCOCC4)CC3)c3ccccc3n2)cc1,inactive: -999%,–
Cc1ccc(NS(=O)(=O)c2ccc3[nH]c4c(c3c2)CCCCCC4)cc1C,–,"inconclusive: 15.8 µM [inhibitor, partial curve, poor fit]"
CCn1cc(S(=O)(=O)N2C[C@@H](C(=O)NC)[C@H](c3n[nH]c(C)n3)C2)cn1,inactive: 3.75%,–
N#Cc1ccc(/C=C2\CSc3ccccc3C2=O)cc1,–,"inconclusive: 14.1 µM [inhibitor, partial curve, poor fit]"
O=C(/C=C/c1cccnc1)c1cccc2ccccc12,–,"inconclusive: 20 µM [inhibitor, single point]"
CN(C)C[C@@H]1CN(c2ccccn2)C[C@H]1NC(=O)NC1CCCCC1,–,active: 31.6 µM
CCc1ccccc1NC(=O)Cn1c(C)cc2nc3n(c(=O)c21)CCCCC3,inactive: 18.1%,–
CCOC(=O)c1ccc(NC(=O)c2c(NCc3ccc(OC)c(OC)c3OC)sc3c2CCC(C)C3)cc1 (stereo not given),–,"inconclusive: 20 µM [inhibitor, partial curve, poor fit]"
Cc1cnc(CC2CCCN(Cc3ccc(C#N)cc3)C2)n1C(C)C (stereo not given),–,"inconclusive: 12.6 µM [inhibitor, partial curve, poor fit]"
O=C(NC1CCN(c2nc3ncccc3o2)CC1)c1ccc(C(F)(F)F)cc1,–,"inconclusive: 14.1 µM [inhibitor, single point]"
O=C(O)c1ccc(CC2CCN(Cc3ccncc3)C2)cc1 (stereo not given),–,"inconclusive: 15.8 µM [inhibitor, partial curve, poor fit]"
O=C(c1cc[nH]c(=O)c1)N1C[C@@H](COCC2CC2)[C@H](c2ccccn2)C1,–,active: 28.2 µM
COc1ccc(-c2ccc(=O)n(CCNC(=O)Cc3ccccc3)n2)cc1,–,"inconclusive: 39.8 µM [inhibitor, single point]"
COc1ccc(-c2nc3ccccc3c(=O)n2O)cc1,–,"inconclusive: 25.1 µM [inhibitor, partial curve, poor fit]"
O=C(O)C[C@@H]1CCN(C(=O)Nc2ccccc2)C[C@@H]1CCN1CCN(c2ccc(F)cc2)CC1,–,"inconclusive: 20 µM [inhibitor, single point]"
CCn1cc(S(=O)(=O)c2cc(C)cc(C)c2)c(=O)c2cc(F)c(N3CCN(c4ccccc4)CC3)cc21,–,"inconclusive: 17.8 µM [inhibitor, partial curve, poor fit]"
CN(C)C(=O)CNC(=O)c1cc2occc2n1Cc1ccc(Cl)cc1,inactive: -17.6%,–

Compound,"activity change, negative = inhibition",Potency
Cc1cc(Cl)ccc1-c1ccc(CNC2CN(C(=O)OC(C)(C)C)C2)cc1,–,"inconclusive: 56.2 µM [inhibitor, partial curve, poor fit]"
CCCNC(=O)N(C1CCOCC1)C1CCN(C(=O)c2ccc(F)cc2)CC1,inactive: -13.8%,–
O=C(Cc1ccccc1F)NCCc1noc(C2CC2)n1,inactive: -14.3%,–
CCC(=O)N1Cc2ccccc2CC2(CCCN(C)C2)C1 (stereo not given),inactive: -4.24% [at 149 µM],–
CC(C)(C)c1ccc(C(=O)Nc2ccccc2C(=O)Cc2ccccc2)cc1,–,"inconclusive: 39.8 µM [inhibitor, single point]"
CCOc1ccc(C(c2c(O)cc(C)n(CCOC)c2=O)N2CCN(c3ccc(F)cc3)CC2)cc1 (stereo not given),–,"inconclusive: 39.8 µM [inhibitor, single point]"
CC1CCCN(c2ncnc3c2CN(C2CCNCC2)C(=O)CN3C)C1 (stereo not given),–,"inconclusive: 50.1 µM [inhibitor, partial curve]"
COc1cc(OC)cc(C(=O)Nc2ccc3c(c2)CN(Cc2ccc4c(c2)OCO4)C(=O)C(C)O3)c1 (stereo not given),–,"inconclusive: 31.6 µM [inhibitor, single point]"
Cc1cccc2cc(-c3nc(-c4cccs4)no3)c(=O)oc12,–,"inconclusive: 8.91 µM [inhibitor, partial curve, poor fit]"
CN(C)c1ccc(-c2nnc([C@H]3CCN(Cc4ccccc4)C3)o2)cc1,–,"inconclusive: 39.8 µM [inhibitor, single point]"
O=C(CSc1nncn1-c1cccc(Cl)c1)Nc1ccccc1C(=O)NCCc1ccccc1,–,"inconclusive: 39.8 µM [inhibitor, single point]"
O=C(CN1CCOC1=O)N1CCCC(c2ccccc2)(c2ccccc2)C1,inactive: 53.7%,–
Cc1nnc(NC(=O)c2ccc3ccccc3c2)s1,–,"inconclusive: 22.4 µM [inhibitor, partial curve, poor fit]"
CCC(C(=O)NCc1ccc(OC)cc1)c1ccccc1 (stereo not given),inactive: -1.9%,–
CCOC(=O)C1CCN(C(=O)c2ccc(-c3ccc(N4CCCCCC4)nc3)cc2)CC1,–,active: 15.8 µM
COc1cc(F)ccc1-c1nc(-c2c(C)noc2C)cc2[nH]c(C)cc12,–,active: 35.5 µM
COC(=O)C1=C(C)N=C2SC=C(CC(=O)N3CCCCC3)N2C1c1ccc(Cl)cc1 (stereo not given),–,"inconclusive: 22.4 µM [inhibitor, single point]"
COc1ccc(CNC(=O)CSc2nc(C3CC3)nc3ccccc23)cc1,inactive: 16.7%,–
Cc1noc(C)c1-c1cc2cc(C(C)C)oc2c(N2CCS(=O)(=O)CC2)n1,–,active: 31.6 µM
COc1ccc(CN(C)C2CCc3nn(C)c(=O)n3CC2)cc1Cn1cccn1 (stereo not given),inactive: -26%,–
CN(C)c1cccc(-c2cnc(Nc3ccncc3)c3c2CCO3)c1,–,active: 28.2 µM
COc1nccnc1NC1CCN(C(=O)NCc2ccc(F)cc2)CC1,–,active: 28.2 µM
